# Measurements taken from PubChem BioAssay AID1030 (National Center for Advancing Translational Sciences (NCATS), 2008).
# Out of some 220,000 compounds screened, about 16,000 (7.3%) were called active. Inconclusive means that the source gave no clear call. Such entries were picked first, then a sample of the others. Calls come from the whole dose curve; as a rule, active = well fitted inhibition curve with a large enough effect (not every such curve was filed as active); inconclusive = small, poorly fitted or top-dose-only effect, or another doubt; inactive = no such curve, though single readings can be large or run the other way. Potencies of inconclusive entries are left out as doubtful fits.
# Target: Aldehyde dehydrogenase 1A1 (Homo sapiens) (UniProt P00352)
# Chain of UniProt P00352 (P00352 whole entry, looked up): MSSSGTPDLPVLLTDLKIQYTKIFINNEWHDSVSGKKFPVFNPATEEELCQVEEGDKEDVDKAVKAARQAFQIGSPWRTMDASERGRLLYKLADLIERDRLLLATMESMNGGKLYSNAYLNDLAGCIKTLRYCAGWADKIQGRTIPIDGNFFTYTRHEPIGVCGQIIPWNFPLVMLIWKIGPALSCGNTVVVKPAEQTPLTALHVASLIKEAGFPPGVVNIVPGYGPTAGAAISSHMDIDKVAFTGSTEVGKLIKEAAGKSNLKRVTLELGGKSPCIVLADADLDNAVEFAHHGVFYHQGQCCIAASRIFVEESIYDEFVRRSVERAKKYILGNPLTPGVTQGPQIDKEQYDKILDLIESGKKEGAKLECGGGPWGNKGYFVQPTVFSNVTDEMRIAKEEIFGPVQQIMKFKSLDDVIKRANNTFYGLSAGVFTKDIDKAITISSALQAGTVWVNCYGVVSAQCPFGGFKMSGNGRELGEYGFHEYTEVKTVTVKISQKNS
# Experiment: qHTS Assay for Inhibitors of Aldehyde Dehydrogenase 1 (ALDH1A1)
# Settings: Purified ALDH1A1, NADH fluorescence, propionaldehyde substrate; series mostly up to 75.3 µM
# Potency is the fitted concentration of half-maximal effect; tags give direction and shape of the fitted curve.
row,Structure (SMILES),Potency
1,CC(C)c1ccc(NC(=O)C(c2ccccc2)N2CCN(C=O)CC2)cc1 (stereo not drawn),"inconclusive [inhibitor, single point]"
2,Cc1cc(=O)c2cccc(Br)c2[nH]1,inactive
3,CCCn1c(=N)c(C(=O)NCC2CCCO2)cc2c(=O)n3cccc(C)c3nc21 (stereo not drawn),"inconclusive [inhibitor, partial curve]"
4,CC(=O)Nc1cccc(OCC(=O)NS(=O)(=O)c2ccc(C)cc2)c1,inactive
5,N#CCCN(Cc1ccccc1)C(=O)c1cccs1,"inconclusive [inhibitor, single point]"
6,O=C(Nc1cccc(F)c1)c1ccc(Br)o1,inactive
7,Cc1nc(C/C(=N\Nc2ccccc2)c2ccc(O)cc2O)cs1,active: 3.16 µM
8,CCOC(=O)c1c(C)[nH]c(C(=O)CN2CC(C)OC(C)C2)c1C (stereo not drawn),active: 7.94 µM
9,COc1ccccc1CN(C)C(=O)c1ccc2c(c1)NC(=O)CS2,inactive
10,O=C(COC(=O)[C@H](Cc1ccccc1)NC(=O)c1cccs1)Nc1cc(F)ccc1F,active: 14.1 µM
11,Cc1cc(NCc2ccccc2)nc(-c2ccccc2O)n1,"inconclusive [inhibitor, partial curve]"
12,CC(C)CCN1C(=O)c2ccc(C(=O)Nc3cccc(S(N)(=O)=O)c3)cc2C1=O,"inconclusive [inhibitor, full curve]"
13,CCOC(=O)c1ccc(NC(=O)c2ccccc2N(C)S(=O)(=O)c2ccccc2)cc1,"inconclusive [inhibitor, single point]"
14,CC(C)c1ccc(COc2ccc(C(=O)N3CCOCC3)cc2)cc1,"inconclusive [inhibitor, single point]"
15,Cc1cc2cc(CNS(=O)(=O)c3ccc4ccccc4c3)ccc2n1C,active: 14.1 µM
16,COCC(C)NC(=O)c1cccc(Cl)c1 (stereo not drawn),inactive
17,COC(=O)c1ccc(Oc2c(C)oc3c(CN4CCN(C)CC4)c(O)ccc3c2=O)cc1,"inconclusive [inhibitor, partial curve]"
18,O=Cc1ccc(C(=O)O)cc1,active: 22.4 µM
19,CCOc1ccc(C2N(c3ccc(F)cc3)C(=O)C3CCCN32)cc1OC (stereo not drawn),inactive
20,CCCCN(CCCC)c1ncnc2nc[nH]c12,inactive
21,O=C(Nc1ccc2nc(-c3ccc(Br)o3)[nH]c2c1)c1cccs1,"inconclusive [inhibitor, single point]"
22,CCOC(=O)c1c(CN2CCOCC2)n(C)c2cc(Br)c(O)c(CN(C)C)c12,"inconclusive [inhibitor, single point]"
23,CCOC(=O)CC1C(=O)NCCN1C1CCCC1 (stereo not drawn),inactive
24,CCC(C)NC(=O)NC(=O)N(C1CCCCC1)S(C)(=O)=O (stereo not drawn),"inconclusive [inhibitor, partial curve]"
25,COc1ccc(NC(=S)NC(NC(=O)c2ccc(Cl)cc2Cl)C(Cl)(Cl)Cl)c([N+](=O)[O-])c1 (stereo not drawn),active: 22.4 µM

row,Structure (SMILES),Potency
1,C/C(=N\NC(=O)c1ccc(Cl)c(Cl)c1)c1ccc(Br)s1,inactive
2,COc1ccccc1NC(=O)c1ccc(S(=O)(=O)N2CCCC2)cc1,"inconclusive [inhibitor, partial curve]"
3,COc1cc(/C=C2/C(=O)NN(c3ccc(Cl)cc3)C2=O)ccc1OC(=O)c1ccco1,"inconclusive [inhibitor, single point]"
4,CC(C)Cn1c(SCC(=O)NCc2ccco2)nnc1-c1ccncc1,"inconclusive [inhibitor, single point]"
5,O=C1Nc2ccccc2C12OCC1(CO2)COC2(OC1)C(=O)Nc1ccccc12 (stereo not drawn),"inconclusive [inhibitor, single point]"
6,CCN(CC)S(=O)(=O)c1ccc(C(=O)Nc2cc3oc4ccccc4c3cc2OC)cc1,"inconclusive [inhibitor, single point]"
7,Cc1ccccc1C(=O)Nc1ccc(C(=O)N/N=C/c2ccncc2)cc1,"inconclusive [inhibitor, single point]"
8,OC1(c2ccc(Cl)cc2)CCN(Cc2nc(-c3cnccn3)no2)CC1,"inconclusive [inhibitor, single point]"
9,CCN1CCN(Cc2c(O)ccc3c2O/C(=C\c2ccc(C)cc2)C3=O)CC1,inactive
10,O=C(CC(=O)c1cccc([N+](=O)[O-])c1)Nc1ccccc1Cl,active: 3.55 µM
11,Cc1ccc(/C([O-])=C(/C(=S)NCc2ccc3c(c2)OCO3)[n+]2ccc(N(C)C)cc2)c(C)c1,"inconclusive [inhibitor, single point]"
12,COC(=O)c1cc(C#N)c(N2CCOCC2)nc1C,"inconclusive [inhibitor, single point]"
13,COc1ccc(CCNC(=O)CSc2cn(Cc3cccc(C)c3)c3ccccc23)cc1OC,"inconclusive [inhibitor, partial curve]"
14,COC(=O)c1c(NC(=O)CC2SC(N)=NC2=O)sc(C)c1C (stereo not drawn),inactive
15,Cc1ccc(Nc2c(-c3ccccn3)nc3cc(C)ccn23)cc1,inactive
16,NC(=O)CC(NSc1ccccc1[N+](=O)[O-])C(=O)O (stereo not drawn),"inconclusive [inhibitor, partial curve]"
17,COc1ccc2[nH]c(C(=O)O)c(CCNC(C)=O)c2c1,"inconclusive [inhibitor, partial curve]"
18,O=C(Nc1ccc(F)c(F)c1)c1ccco1,"inconclusive [inhibitor, single point]"
19,COC(=O)c1cc(NC(=O)Cn2c(=O)cnc3ccccc32)cc(C(=O)OC)c1,active: 0.355 µM
20,O=C(OCC(=O)c1c[nH]c2ccccc12)c1cc(Br)ccc1O,inactive
21,O=C(NCc1cccs1)C1CCCN(S(=O)(=O)c2cccs2)C1 (stereo not drawn),inactive
22,CCN1CCN(C(=O)C2CCN(Cc3cc(Cl)ccc3O)CC2)CC1,"inconclusive [inhibitor, partial curve, poor fit]"
23,CCC(=O)N1CCN(c2nc(-c3ccccc3)c3c(c2C#N)CCCC3)CC1,"inconclusive [inhibitor, partial curve]"
24,O=C(/C=C/c1cccs1)Nc1ccncc1,inactive
25,CCOc1ccc(/C=C/C2=Cc3c(sc(NC(=O)CSc4n[nH]c(N)n4)c3C#N)C(C)(C)C2)cc1,active: 25.1 µM

row,Structure (SMILES),Potency
1,COc1cccc(NC(=S)NN=C2CCC(C(C)(C)C)CC2)c1 (stereo not drawn),"inconclusive [inhibitor, single point]"
2,Cn1c(SCC2CCCO2)nnc1-c1cccc([N+](=O)[O-])c1 (stereo not drawn),"inconclusive [inhibitor, single point]"
3,CCOc1ccc2[nH]c(=O)c(CN(CC3CCCN3CC)C(=O)NCc3ccccc3)cc2c1 (stereo not drawn),"inconclusive [inhibitor, single point]"
4,Cc1ccn2c(CNC(C)CCn3cccn3)c(C(=O)N3CCCCCC3)nc2c1 (stereo not drawn),"inconclusive [inhibitor, single point]"
5,CC(C)N=C1CC(C)(C)CC(=O)/C1=C(/O)CCCN1C(=O)c2ccccc2C1=O,"inconclusive [inhibitor, single point]"
6,CCN1C(=O)C(CC(=O)Nc2ccc(C)cc2C)Nc2cc(S(=O)(=O)N(C)C)ccc21 (stereo not drawn),active: 28.2 µM
7,CCOC(=O)/C(=C/c1ccc(OC(=O)c2ccncc2)cc1)C(C)=O,"inconclusive [inhibitor, single point]"
8,CCOC(=O)CN1c2ccccc2NC(=O)CC1C (stereo not drawn),"inconclusive [inhibitor, partial curve]"
9,CN(C)C(=S)SCC(=O)Nc1cccc(C(F)(F)F)c1,"inconclusive [inhibitor, single point]"
10,CCC(=O)N1CCN(c2ccccc2NC(=O)Cc2ccccc2)CC1,"inconclusive [inhibitor, single point]"
11,COc1nc(-c2ccccc2)nc(C)c1CC(=O)O,inactive
12,CCN1CCCC1Cn1cnc2c([nH]c3ccc(C)cc32)c1=O (stereo not drawn),"inconclusive [inhibitor, single point]"
13,CCOC(=O)c1ccc(NS(=O)(=O)N2CCCCCC2)cc1,"inconclusive [inhibitor, partial curve, poor fit]"
14,O=C(CSCc1ccccc1Br)N/N=C/c1ccc(OCC(=O)N2CCCCC2)cc1,"inconclusive [inhibitor, single point]"
15,COC(=O)COc1ccc(S(=O)(=O)Nc2cc([N+](=O)[O-])ccc2C)cc1,inactive
16,CC(C)OC(=O)Nc1ccc(Oc2c(F)c(F)c(F)c(F)c2F)cc1,inactive
17,COc1ccc(N2CCN(S(=O)(=O)c3ccc(C(=O)NC4CCCC4)cc3)CC2)cc1,"inconclusive [inhibitor, single point]"
18,CC(Nc1c([N+](=O)[O-])c(=O)oc2ccccc12)C(Cl)c1ccccc1 (stereo not drawn),"inconclusive [inhibitor, full curve]"
19,CCC(C)(C)n1nnnc1CN(Cc1ccco1)Cc1cc2cc3c(cc2[nH]c1=O)OCO3,"inconclusive [inhibitor, partial curve]"
20,Cc1cc(C)c2cc(C#N)c(NCCCNC(=O)CCC(=O)O)nc2c1,"inconclusive [inhibitor, partial curve]"
21,CC1S/C(=N/N=C/c2ccco2)N(Cc2ccccc2)C1=O (stereo not drawn),active: 10 µM
22,CC1CCCN(C(=O)c2ccc3nc[nH]c3c2)C1 (stereo not drawn),"inconclusive [inhibitor, single point]"
23,c1ccc(Cc2nnc3n2N=C(c2ccccc2)CS3)cc1,"inconclusive [inhibitor, single point]"
